In all, about 110,000 compounds went through this assay and about 230 (0.21%) showed an effect of 50% or more. The list shows a part of the results.
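Also: 30 min substrate incubation versus DMSO and 10 µM JCP410 controls.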

This test deals with DPAP1 (Plasmodium falciparum, UniProt Q8IIJ9). The test is described as follows: primary screen, percent inhibition; read by cleavage of a fluorogenic dipeptide substrate; higher = more effect of the substance. Further details: species or system P. falciparum D10 trophozoite lysates; single well.
Sequence of DPAP1 (Q8IIJ9 whole entry, looked up): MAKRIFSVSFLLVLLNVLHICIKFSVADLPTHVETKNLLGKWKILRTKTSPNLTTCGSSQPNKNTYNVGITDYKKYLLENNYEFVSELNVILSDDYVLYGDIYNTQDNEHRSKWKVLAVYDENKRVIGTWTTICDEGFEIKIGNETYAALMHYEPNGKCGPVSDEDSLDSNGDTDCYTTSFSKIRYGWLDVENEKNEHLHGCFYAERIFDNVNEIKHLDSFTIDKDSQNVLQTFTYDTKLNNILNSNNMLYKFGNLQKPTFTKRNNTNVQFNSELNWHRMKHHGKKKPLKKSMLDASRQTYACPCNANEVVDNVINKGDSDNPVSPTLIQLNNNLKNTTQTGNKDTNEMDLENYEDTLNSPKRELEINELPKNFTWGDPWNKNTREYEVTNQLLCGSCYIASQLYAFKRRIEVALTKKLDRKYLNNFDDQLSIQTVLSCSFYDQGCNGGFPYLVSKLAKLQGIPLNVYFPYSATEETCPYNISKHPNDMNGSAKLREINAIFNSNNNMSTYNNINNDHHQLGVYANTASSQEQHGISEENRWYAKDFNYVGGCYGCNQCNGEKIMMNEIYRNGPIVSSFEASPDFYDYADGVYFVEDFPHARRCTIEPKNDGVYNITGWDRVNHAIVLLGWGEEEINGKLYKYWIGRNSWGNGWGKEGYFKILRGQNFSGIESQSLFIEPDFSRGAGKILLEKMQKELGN
Turning to `CN1CCN(c2ccc(N3CCN(C)CC3)nn2)CC1`, the “% Inhibition @ 10 uM” value is on record as 0.266%. The value for `CCC(=O)N1N=C2c3ccc(OC)cc3CCC2C1c1ccc(Br)cc1` (stereo not drawn) was -1.43%. The value for `c1ccc(CNc2nc3ncccc3nc2-c2ccccc2)cc1` was -2.25%; that for `Cc1onc(-c2c(Cl)cccc2Cl)c1C(=O)N1CCCC1` was 3.44%. As for `CN1C(c2ccccc2)CC(=O)CC1c1ccccc1` (stereo not drawn), the “% Inhibition @ 10 uM” value is -0.771%. The value for `CC12C(=O)N(c3ccccc3O)C(=O)C1C1C=CC2C1` (stereo not drawn) was 2.69%. The value for `CCC(C(=O)Nc1nc2nc(-c3ccccc3)cc(O)n2n1)c1ccccc1` (stereo not drawn) was 2.05%; that for `Cn1c(NC(=O)c2ccc(F)cc2)nc2ccccc21` was 1.64%; that for `COc1cccc(NC(=O)CNS(=O)(=O)c2cc(Cl)ccc2Cl)c1` was -2.28%. The value for `CC(NC(=O)C1CCCN(S(=O)(=O)N2CCOCC2)C1)C12CC3CC(CC(C3)C1)C2` (stereo not drawn) was -2.56%; that for `O=C(NCCO)/C(=C\C=C\c1ccccc1)NC(=O)c1ccccc1Cl` was 17.9%; that for `COc1ccc(-c2cc(C(=O)N3N=C(C(F)F)CC3(O)C(F)F)c3ccccc3n2)cc1OC` (stereo not drawn) was -5.06%. With `Cc1sc2nc(SCC(=O)N3CCN(CCO)CC3)nc(O)c2c1C`, the “% Inhibition @ 10 uM” value is on record as 6.23%.

For the compound `Cc1nc2ccc(S(=O)(=O)N(C)CC(=O)Nc3nccs3)cc2s1`, the “% Inhibition @ 10 uM” value was determined as 2.76%. The same measure for `Cn1c(=O)c2c(nc(SCC(=O)N3CCOCC3)n2Cc2cccc(F)c2)n(C)c1=O`: 1.37%; for `CC(=O)Nc1ccccc1SCC(=O)Nc1ccc(Cl)cc1`: 0.889%. `CC(C)c1ccc2oc(-c3ccc(N)cc3O)nc2c1`: the “% Inhibition @ 10 uM” value was -2.88%. Consider `CC1SC(c2ccc(Br)cc2)N(c2ccccc2)C1=O` (stereo not drawn), for which the “% Inhibition @ 10 uM” value stood at 0.661%.

Regarding `OCC1CCCN1Cc1ccc(F)c(Br)c1` (stereo not drawn), the “% Inhibition @ 10 uM” value is reported as 3.48%. The same measure for `Cc1c(C(=O)NC(C)(C)C)sc2nc(-c3ccc(F)cc3)cn12`: 1.55%; for `CC1=NC2(CCCCCC2)Cc2ccccc21`: -2.16%; for `COC(=O)NC(=O)C(=CNCc1ccc(Cl)c(Cl)c1)C(=O)NC(=O)OC`: 2.13%. The same measure for `O=C(NCc1c(O)c(Cl)cc(Cl)c1Cl)c1ccccc1`: -6.99%.

As to `CSc1ccc(Cl)c(C(=O)Nc2cccc(C)n2)c1`, the “% Inhibition @ 10 uM” value is 2.67%. The value for `CCN1CCN(C/C=C/c2ccccc2)CC1` was -5.42%. The same measure for `O=C(O)c1ccc(NS(=O)(=O)c2cccc(C(=O)Nc3ccccc3[N+](=O)[O-])c2)cc1`: 4.82%. `CS(=O)(=O)c1ccc2nc(NC(=O)c3cccs3)sc2c1`: the “% Inhibition @ 10 uM” value is -4.33%. The value for `CCCCNC(=O)Cn1nnc2sc3c(c2c1=O)CCCC3` was 0.758%. The value for `O=C(Cn1nc(-c2ccccc2)c2ccccc2c1=O)N1CCCCC1` was 3.06%; that for `CC(C)(C)c1ccc(C(=O)Nc2ccc(Cl)nc2)cc1` was 2.5%. With `COc1cc2nc(O)n3nc(C)nc3c2cc1OC`, the “% Inhibition @ 10 uM” value is listed as -0.326%. As to `CC(CCc1ccccc1)NC(=O)c1cccs1` (stereo not drawn), the “% Inhibition @ 10 uM” value worked out at 3.47%.

Turning to `COc1cc(C2CC(=O)N3C(=C2C#N)SCC3(O)c2ccco2)cc(OC)c1OC` (stereo not drawn), the “% Inhibition @ 10 uM” value is -1.74%.

As for `Cc1ccc(-c2noc(CCC(=O)N3CCC(Cc4ccccc4)CC3)n2)cc1`, the “% Inhibition @ 10 uM” value is on record as 2.9%. Take `O=C(C1CC(c2ccc(F)cc2)=NO1)N1CCc2ccccc2C1` (stereo not drawn): the “% Inhibition @ 10 uM” value is recorded as -0.431%. The same measure for `CC1(C)CC2(CC(c3ccccc3F)c3ccc(O)c(O)c3O2)NC(=S)N1` (stereo not drawn): -2.5%; for `O=C(c1cc2nc(-c3ccccc3)cc(C(F)(F)F)n2n1)N1CCOCC1`: 1.87%; for `CC(=O)c1cnc2c(-c3ccccc3)c(-c3ccccc3)nn2c1C`: -0.13%. The same measure for `CC1CCC(NC(=O)C2CCCN2S(=O)(=O)c2ccc3[nH]c(-c4ccccc4)nc3c2)CC1` (stereo not drawn): 4.92%; for `CCn1c(C)cc(/C=C2\SC(=O)N(CC(=O)Nc3ccccc3)C2=O)c1C`: 0.161%. `CC(C)Oc1cccc(C(=O)Nc2ccc(Cl)cn2)c1`: the “% Inhibition @ 10 uM” value is given as -13.4%. For the compound `CN1CCCN(C2CC(=O)N(c3ccccc3)C2=O)CC1` (stereo not drawn), the “% Inhibition @ 10 uM” value is -4.41%. The value for `Cc1ccc(C)c(CN2CCCN(C)CC2)c1` was 1.48%. The same measure for `Nc1c(C(=O)Nc2ccc(Cl)cc2)sc2nc3c(cc12)CCC3`: 0.931%. As for `CCN(CC)CCCNc1oc(/C=C/c2ccccc2OC)nc1C#N`, the “% Inhibition @ 10 uM” value is given as -0.808%. The same measure for `CSc1cccc(/N=C2/S/C(=C/c3cccnc3)C(=O)N2C)c1`: 0.722%. The same measure for `COc1ccc(C2C(C#N)=C(SCC(=O)NCc3ccccc3)N=C3CC(C)(C)CC(O)=C32)cc1` (stereo not drawn): 2.46%. As to `Cc1[nH]c(-c2ccc(F)cc2)cc1C(=O)NC1CCCc2ccccc21` (stereo not drawn), the “% Inhibition @ 10 uM” value was determined as 3.64%. Regarding `Cc1[nH]nc(O)c1C(c1cccs1)c1c(O)n[nH]c1C`, the “% Inhibition @ 10 uM” value is -1.63%. The same measure for `COc1ccc(C2CC(=O)NC(SC)=C2C#N)cc1OCc1ccccc1` (stereo not drawn): 21.6%. The value for `CCCC1CCC(C2=N/C(=C\c3ccc(OC)c(OC)c3)C(=O)O2)CC1` (stereo not drawn) was 5.57%.
